Measured values taken from PubChem BioAssay AID624296 (National Center for Advancing Translational Sciences (NCATS), 2012).
The whole screen tested about 350,000 compounds, of which about 9,900 (2.8%) were called active. The inconclusive results got no clear call from the source; some entries with a clear call stand among them for comparison. Calls come from the whole dose curve; as a rule, active = well fitted activation curve with a large enough effect; inconclusive = small, poorly fitted or top-dose-only effect; inactive = no such curve, though single readings can be large or run the other way. No potency is given beside an inconclusive call; the fits are too rough.

test: A quantitative high throughput screen for small molecules that induce DNA re-replication in MCF 10a normal breast cells.; note: nearly all actives have a fitted effect of over 50% in size; for activity, positive = re-replication: % of control where 0% means no effect; settings: MCF 10A DNA re-replication, Hoechst nuclear intensity, 48 h; activity, positive = re-replication: at 46.1 µM (top of the series)
Potency is the fitted concentration of half-maximal effect; tags give direction and shape of the fitted curve.

Compound | activity, positive = re-replication | Potency
CCN(C(=O)COC(=O)c1ccc(C=O)cc1)c1c(N)n(Cc2ccccc2)c(=O)[nH]c1=O | inactive: 16.8% | 
Cc1noc(C)c1S(=O)(=O)N(CC(=O)NCCc1ccccc1)c1ccc(C(C)C)cc1 | inactive: -1.34% | 
Cc1ccc(-c2ccc(SCC(=O)c3ccccc3)nn2)cc1 |  | inconclusive [activator, partial curve, poor fit]
COc1ccc(/C=N/NC(=O)c2cccnc2)cc1COc1ccc([N+](=O)[O-])cc1 |  | inconclusive [activator, full curve, poor fit]
COC(=O)C1=C(C)NC(C)=C(C(=O)OC)C1c1ccccc1OCc1c(C)no[n+]1[O-] |  | inconclusive [activator, single point]
Cc1nc(CC(=O)c2ccc(O)cc2O)cs1 | inactive: -190% [at 0.0737 µM] | 
O=C(O)c1ccc(N/N=C/C(Br)=C/c2ccccc2)cc1 |  | inconclusive [activator, single point]
CCCCCN(C(=O)CCC(=O)OCC(=O)c1ccc(C(C)CC)cc1)c1c(N)n(CCCC)c(=O)[nH]c1=O (stereo unspecified) |  | inconclusive [activator, single point]
NC(=O)C1CCN(c2oc(-c3cccs3)nc2S(=O)(=O)c2ccc(Cl)cc2)CC1 | inactive: 4.97% | 
O=C(Cc1ccc([N+](=O)[O-])cc1)N1N=C2CCCCC2C1(O)C(F)(F)F (stereo unspecified) | inactive: -15.1% | 
COc1ccc(Cc2cnc(N)nc2N)cc1OC | inactive: 0.461% | 
CCOc1ccc(-c2nnc3ccc(SCc4ccc(C(=O)OC)o4)nn23)cc1 |  | inconclusive [activator, single point]
Cc1ccc(C)c(NC(=S)NC(NC(=O)/C=C/c2ccccc2)C(Cl)(Cl)Cl)c1 (stereo unspecified) |  | active: 2.91 µM
BrC(/C=N/Nc1nc(N2CCOCC2)nc(N2CCOCC2)n1)=C/c1ccccc1 |  | inconclusive [activator, partial curve, poor fit]
CC(C)COc1ccc(/C=C2/Sc3ccccc3C2=O)cc1 |  | inconclusive [activator, single point]
Cc1cccc(C(=O)Nc2ccnc(-c3cccnc3)n2)c1 |  | inconclusive [activator, partial curve, poor fit]
COc1ccc(CNC(=O)c2cc3ccccc3o2)cc1OC | inactive: -0.733% | 
COC(=O)c1ccc(-c2noc(CN3CCCC(CNC(C)=O)C3)n2)cc1 (stereo unspecified) | inactive: 5.96% | 
CCC(=O)NC(=S)Nc1ccc(NC(=O)c2ccc([N+](=O)[O-])cc2Cl)cc1 | inactive: 3.17% | 
O=C(O)c1ccccc1C(=O)c1ccc(Br)s1 | inactive: -5.09% | 
CCOc1cc2[nH]c(=S)n(CC3CCCO3)c(=O)c2cc1OCC (stereo unspecified) |  | inconclusive [activator, partial curve, poor fit]
C[C@@H](CSc1ccccc1)CN1CC[C@H](NC(=O)OCc2ccccc2)CCC1=O |  | inconclusive [activator, single point]
COc1ccc([C@@H]2CC=C(C(=O)O)[C@H](c3ccc(C(C)(C)C)cc3)N2S(=O)(=O)c2ccc(C)cc2)cc1OC |  | inconclusive [activator, full curve, poor fit]
CCCCN(CCCC)c1nc2ccccc2nc1NS(=O)(=O)c1ccc(NC(C)=O)cc1 |  | active: 11.6 µM

Compound | activity, positive = re-replication | Potency
C[C@@]12C(=O)Nc3cc(F)c(F)cc3C(=O)N1[C@H]1c3ccccc3OC[C@@H]1[C@@H]2c1ccccc1 | inactive: 19.1% | 
COC(=O)CSC1=C(C#N)C(c2ccc(C)cc2)C2=C(CCCC2=O)N1 (stereo unspecified) | inactive: 28% | 
C=CCC[C@@H](Cc1ccc(F)cc1)C(=O)OC[C@H]1CCCN1C(=O)[C@@H](CC=C)CC(=O)N[C@H](CO)Cc1ccccc1 |  | inconclusive [activator, single point]
Oc1c(Cl)c(Cl)c2ncccc2c1Cl |  | inconclusive [activator, partial curve, poor fit]
CCOc1ncccc1C(=O)OC(C)C(=O)NC(=O)NC1CCCCC1 (stereo unspecified) |  | inconclusive [activator, single point]
CN1CCN(S(=O)(=O)c2ccc3ccccc3c2)CC1 | inactive: 0.808% | 
O=C(CNS(=O)(=O)c1ccccc1)OCC(=O)c1ccc(F)cc1 |  | inconclusive [activator, partial curve, poor fit]
CCOC(=O)c1c(N2C(=O)C3C4C=CC(O4)C3C2=O)sc2c1CCCC2 (stereo unspecified) |  | inconclusive [activator, single point]
O=C(NC1CCCc2ccccc21)C1CCC(CNS(=O)(=O)c2cccc3nsnc23)CC1 (stereo unspecified) |  | inconclusive [activator, partial curve, poor fit]
Cc1cc(NC(=O)c2cc(-c3ccccn3)nc3ccccc23)no1 | inactive: 16.6% | 
COc1cc(CCN2C(=O)N[C@@H](c3cccc(C(F)(F)F)c3)C(C(C)=O)=C2C)cc(OC)c1OC |  | inconclusive [activator, partial curve, poor fit]
Fc1ccc(NC(=S)NCCN2CCOCC2)cc1 | inactive: -1.28% | 
CCOC(=O)Cc1csc(NC(=O)CSc2ncnc3c2cnn3-c2ccccc2Cl)n1 |  | inconclusive [activator, single point]
CCOCCOC(=O)COC(=O)c1ccccc1NC(=O)c1ccccc1 |  | inconclusive [activator, single point]
N#Cc1cnn(-c2cccc(Cl)c2)c1-n1cccc1 |  | inconclusive [activator, full curve, poor fit]
O=C(NNC(=O)c1n[nH]c(=O)c2ccccc12)c1ccc(Br)cc1 |  | inconclusive [activator, partial curve, poor fit]
CCOc1ccc(-n2cnnn2)cc1S(=O)(=O)N1CCCCC1 |  | inconclusive [activator, partial curve, poor fit]
Cc1cc(NC(=O)Cc2ccccc2)no1 |  | inconclusive [activator, single point]
Cc1ccc(-c2nc(C=Nc3cccc(C)c3)c(O)o2)cc1 |  | inconclusive [activator, single point]
CN(C)Cc1ccc(F)cc1Sc1cc(Cl)ccc1Cl |  | inconclusive [activator, single point]
CCn1c(NC(=O)c2ccccc2)nc2ccccc21 |  | inconclusive [activator, full curve, poor fit]
COc1ccc(NC(=O)CNC(c2ccccc2)c2ccccc2)cc1 | inactive: -0.22% | 
Cc1cccc(C)c1NC(=O)CN(C)CC(=O)Nc1ccc(F)c(Cl)c1 | inactive: -1.05% | 
CN(C)CCCN(C(=O)c1ccc(S(=O)(=O)N2CCCCCC2)cc1)c1nc2ccc(Br)cc2s1 |  | inconclusive [activator, single point]

Compound | activity, positive = re-replication | Potency
Cc1sc2ncnc(SCC(=O)NNC(=O)COc3cccc4ccccc34)c2c1C |  | active: 23.1 µM
C[C@@]12C(=O)OC(=O)[C@]1(C)[C@H]1CC[C@@H]2O1 |  | inconclusive [activator, full curve]
CCOC(=O)c1cnc(SCc2nc(N)nc(Nc3ccc(F)cc3)n2)nc1N |  | active: 3.66 µM
CC(C)(C)CC(=O)NC(=S)NCCc1ccccc1 |  | inconclusive [activator, single point]
O=C(CSc1ccccc1)Nc1ccc(N2CCOCC2)c(F)c1 | inactive: 9.12% | 
CCOc1ccc(NS(=O)(=O)c2ccc3c(c2)oc(=O)n3C)cc1 | inactive: -2.55% | 
O=C(c1ccc([N+](=O)[O-])cc1)N1CCc2ccccc2C1 | inactive: -3.11% | 
O=C(/C=C/Nc1ccc(F)cc1)c1ccc(Br)cc1 |  | inconclusive [activator, single point]
O=C(O)CCC/C=C\C[C@@H]1[C@@H](/C=C/[C@@H](O)COc2cccc(C(F)(F)F)c2)[C@H](O)C[C@@H]1O | inactive: -2.51% | 
Cc1ccc(NC(=O)NNC(=O)CN2C(=O)COc3ccccc32)cc1 | inactive: -4.62% | 
COCCn1c(SCC(=O)NC2CC2)nnc1-c1ccco1 | inconclusive: -36.7% [activator] | 
COc1cc2c(-c3ccc4[nH]ccc4c3)c(-c3ccc(C#N)cc3)oc(=O)c2cc1OC |  | inconclusive [activator, partial curve, poor fit]
Cc1cc(C)c(S(=O)(=O)C(C)C)c(=O)[nH]1 | inactive: 3.75% | 
O=c1c2cccnc2[nH]c(=S)n1CCC1=CCCCC1 | inactive: 3.6% | 
O=C(O)c1cccc(N/N=C/C2=C(Cl)c3cc(Cl)ccc3SC2)c1 |  | active: 8.2 µM
COc1ccc(CC(O)CC2c3c(cc4c(c3OC)OCO4)CCN2C)cc1 (stereo unspecified) | inactive: -2.2% | 
CCN(CC)S(=O)(=O)c1ccc(NC(=O)c2c(-c3ccccc3)noc2C)cc1 |  | inconclusive [activator, partial curve, poor fit]
CC(=O)Oc1ccc(N(c2ccccc2)S(=O)(=O)c2ccc(C)cc2)cc1 |  | inconclusive [activator, single point]
O=C(Nc1ccc(F)cc1)Nc1cc(OCC(F)(F)F)cc(OCC(F)(F)F)c1 |  | inconclusive [activator, single point]
O=C(COc1ccc(-c2nnco2)cc1)Nc1cc([N+](=O)[O-])ccc1F | inactive: -29.6% | 
COC(=O)c1cc(C(=O)Nc2nnc(CC(C)(C)C)s2)cc([N+](=O)[O-])c1 |  | inconclusive [activator, single point]
O=c1cc(-c2ccncc2)oc2ccccc12 | inactive: 18.3% | 
CC(C)=C1C2C=CC1C1C(=O)N(c3ccc4c(c3)OCO4)C(=O)C21 (stereo unspecified) |  | inconclusive [activator, partial curve, poor fit]
